This is an account of results in PMC4336329 (PLoS ONE, 2015).

Hit rate of the full screen: of about 310,000 compounds, about 14,000 (4.5%) showed an effect of 50% or more. Effects have a minus sign here. The list shows a part of the results.
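Note: peak tail current of the secondary pulse compared with the same well before compound.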

The target of the assay is human ether-à-go-go-related gene (hERG) potassium channel (human, UniProt Q12809). Put plainly: primary screen, population patch clamp on CHO cells stably expressing hERG.
Chain of human ether-à-go-go-related gene (hERG) potassium channel (Q12809 whole entry, looked up): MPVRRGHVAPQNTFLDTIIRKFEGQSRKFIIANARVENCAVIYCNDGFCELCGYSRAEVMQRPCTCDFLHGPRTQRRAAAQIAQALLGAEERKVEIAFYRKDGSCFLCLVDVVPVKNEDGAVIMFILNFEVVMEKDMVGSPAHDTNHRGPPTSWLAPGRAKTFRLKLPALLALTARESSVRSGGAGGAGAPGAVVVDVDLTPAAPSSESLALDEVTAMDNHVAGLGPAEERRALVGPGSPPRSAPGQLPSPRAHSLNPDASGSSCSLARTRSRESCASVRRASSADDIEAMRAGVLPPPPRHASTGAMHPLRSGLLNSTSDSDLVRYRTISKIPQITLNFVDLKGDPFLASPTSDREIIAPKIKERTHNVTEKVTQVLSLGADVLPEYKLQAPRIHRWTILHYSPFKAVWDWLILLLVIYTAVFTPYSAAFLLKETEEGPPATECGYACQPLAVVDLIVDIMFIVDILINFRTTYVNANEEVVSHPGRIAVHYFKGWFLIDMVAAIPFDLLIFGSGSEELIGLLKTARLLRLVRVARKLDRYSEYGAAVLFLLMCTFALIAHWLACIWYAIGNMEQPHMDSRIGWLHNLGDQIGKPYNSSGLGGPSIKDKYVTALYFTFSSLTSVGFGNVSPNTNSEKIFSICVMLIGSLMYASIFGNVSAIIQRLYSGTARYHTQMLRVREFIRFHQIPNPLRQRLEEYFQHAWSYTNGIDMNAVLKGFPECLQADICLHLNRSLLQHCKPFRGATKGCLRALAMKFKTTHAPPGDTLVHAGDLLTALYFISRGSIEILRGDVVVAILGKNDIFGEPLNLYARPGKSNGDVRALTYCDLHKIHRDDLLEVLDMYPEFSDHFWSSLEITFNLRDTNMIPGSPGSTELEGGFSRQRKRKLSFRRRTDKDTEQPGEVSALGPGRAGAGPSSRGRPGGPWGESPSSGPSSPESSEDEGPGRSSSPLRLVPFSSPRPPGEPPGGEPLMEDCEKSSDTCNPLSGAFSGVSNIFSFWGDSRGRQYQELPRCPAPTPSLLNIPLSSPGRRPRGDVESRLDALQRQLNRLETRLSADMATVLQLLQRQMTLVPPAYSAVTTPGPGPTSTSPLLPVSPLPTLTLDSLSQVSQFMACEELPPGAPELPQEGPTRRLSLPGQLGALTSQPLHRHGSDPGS
`COc1cc(NC(=O)COc2ccccc2C)ccc1NC(=O)c1ccco1`: the “hERG current change (%, negative = inhibition) at 10uM” value was found to be 37.1%. For `CC1(OC(=O)c2ccc(Cl)nc2)C(=O)C=C2C=C(c3ccc(C#N)cc3)OC=C2C1=O` (stereo not drawn), the “hERG current change (%, negative = inhibition) at 10uM” value is reported as -3.07%. Next, `O=C(/C=C/c1ccc2c(c1)OCO2)NCc1ccc(F)cc1`: 1.09%. `N/C(=N\OC(=O)CCCOc1ccccc1)c1ccc(Br)cc1`: the “hERG current change (%, negative = inhibition) at 10uM” value is recorded as 8.83%. Next, `COc1ccccc1N1CCN(C(=O)c2sc3ncn(CC(=O)N4CCC(C)CC4)c(=O)c3c2C)CC1`: -29.3%; `Cc1cc(NC(=O)C2CCCN2C(=O)Nc2c(C)cccc2C)ccc1-n1cnnn1` (stereo not drawn): -10.9%. For the compound `COc1cccc(-c2csc(NC(=O)Oc3ccccc3)n2)c1`, the “hERG current change (%, negative = inhibition) at 10uM” value is given as -7.48%.

As for `COc1ccc(-c2ccc3c(N)c(C(=O)c4ccc(OC)c(OC)c4)sc3n2)cc1`, the “hERG current change (%, negative = inhibition) at 10uM” value is reported as -0.284%.

With `CCCN(c1ccc(OCC)cc1)S(=O)(=O)c1ccc2c(c1)CCN2C(=O)CCC(=O)O`, the “hERG current change (%, negative = inhibition) at 10uM” value was 22.3%. Regarding `O=C(COC(=O)Cc1c[nH]c2ccccc12)NC1CCS(=O)(=O)C1` (stereo not drawn), the “hERG current change (%, negative = inhibition) at 10uM” value was found to be 10.1%. For the compound `NS(=O)(=O)c1ccc(NC(=O)Cn2ncc3c2-c2ccccc2OC3)cc1`, the “hERG current change (%, negative = inhibition) at 10uM” value turned out to be 15.2%.

For `Cc1ccc(-c2noc(C3CCCN(C(=O)c4ccccc4Br)C3)n2)o1` (stereo not drawn), the “hERG current change (%, negative = inhibition) at 10uM” value was -42.6%.

Regarding `CC(OC(=O)CC1CC2CCC1C2)C(=O)Nc1ccc(C(N)=O)cc1` (stereo not drawn), the “hERG current change (%, negative = inhibition) at 10uM” value is given as -16%.

For `COc1ccc2oc(-c3cccc(NC(=O)CSc4ccc(Cl)cc4)c3)nc2c1`, the “hERG current change (%, negative = inhibition) at 10uM” value is recorded as 3.14%. As for `Cc1ccsc1C(=O)C1CCCN(Cc2cnn(C)c2)C1` (stereo not drawn), the “hERG current change (%, negative = inhibition) at 10uM” value was determined as 12%.

As to `Cn1c(=O)c2cc(S(=O)(=O)NC(C(=O)NCc3cccnc3)c3ccccc3)ccc2n(C)c1=O` (stereo not drawn), the “hERG current change (%, negative = inhibition) at 10uM” value stood at 1.13%. For `CCSc1nnc(NC(=O)c2csc3c2CCCC3)s1`, the “hERG current change (%, negative = inhibition) at 10uM” value is on record as -3.14%. Take `CN(C)S(=O)(=O)c1ccc(Cl)c(NC(=O)c2ccncc2)c1`: the “hERG current change (%, negative = inhibition) at 10uM” value is on record as -32%. Turning to `Cc1c(-c2cc(C(=O)O)on2)cnn1C`, the “hERG current change (%, negative = inhibition) at 10uM” value amounted to 25.6%. With `COc1ccc(OC)c(S(=O)(=O)Nc2c(C)cccc2C)c1`, the “hERG current change (%, negative = inhibition) at 10uM” value turned out to be 10.8%. As to `COC(=O)CSc1nn(-c2ccc(F)cc2)c(=S)s1`, the “hERG current change (%, negative = inhibition) at 10uM” value was -2.71%.

On to `CS(=O)(=O)n1nc(OC(=O)c2cccs2)cc1N`, for which the “hERG current change (%, negative = inhibition) at 10uM” value is reported as 15.1%.

Regarding `CC(OC(=O)c1ncc(Cl)c(Cl)c1Cl)C(=O)NC1(C#N)CCCCC1` (stereo not drawn), the “hERG current change (%, negative = inhibition) at 10uM” value was 8.35%. As for `O=C(N1CCOCC1)N(Cc1ccccc1)c1ccccn1`, the “hERG current change (%, negative = inhibition) at 10uM” value is reported as -4.16%. For `CC(C)OC(=O)NCCOC(=O)Nc1ccc(Cl)cc1`, the “hERG current change (%, negative = inhibition) at 10uM” value worked out at 54.9%. For `CCc1nnc(NCC(=O)N2CCc3ccccc32)s1` the value was -7.75%; for `COc1ccc(NC(=O)c2cccnc2)c(OC)c1`, 0.833%. As for `Cc1nc2ccccc2n1CCc1nc2c3ccccc3nc(SCC#N)n2n1`, the “hERG current change (%, negative = inhibition) at 10uM” value is given as -20.5%. Turning to `COc1ccc(NC(=O)c2ccco2)cc1NC(=O)c1cc2ccccc2o1`, the “hERG current change (%, negative = inhibition) at 10uM” value is listed as 3.33%. As to `O=C(Nc1cc2c(cc1Br)OCCO2)c1cccs1`, the “hERG current change (%, negative = inhibition) at 10uM” value came to 23.3%. On to `O=C(CCCO)N/N=C/c1cc(Br)ccc1O`, for which the “hERG current change (%, negative = inhibition) at 10uM” value is recorded as -18.1%. For `Cc1cccc(OCC(=O)Nc2nnc(S(=O)(=O)N3CCCCCC3)s2)c1` the value was 22.2%. Take `CCOC(=O)n1c(=O)oc2ccc(Cl)cc21`: the “hERG current change (%, negative = inhibition) at 10uM” value is recorded as -0.929%. For `CC1CN(Cc2c(O)ccc3c(=O)c(-c4ccccc4Cl)coc23)CC(C)O1` (stereo not drawn) the value was -10.3%; for `O=C(c1cccc(C(F)(F)F)c1)C1CCCN(Cc2cccc(OCCO)c2)C1` (stereo not drawn), -47.4%; for `COc1ccc(-c2cn[nH]c2C)cc1OC`, 17.7%. In the case of `Cc1cccc(Nc2cc(=O)[nH]c(=O)[nH]2)c1C`, the “hERG current change (%, negative = inhibition) at 10uM” value was determined as 10.4%. Regarding `Cc1ccccc1CC(=O)N1CCCC1`, the “hERG current change (%, negative = inhibition) at 10uM” value is reported as -2.77%. As for `COC(=O)Cc1ccc(N(Cc2ccccc2F)S(=O)(=O)c2ccc(C)cc2)cc1`, the “hERG current change (%, negative = inhibition) at 10uM” value is -4.8%. Consider `O=C(NC1CCCCC1)N1CCSC1=Nc1ccccc1`, for which the “hERG current change (%, negative = inhibition) at 10uM” value is -5.04%. `CC1CCc2sc(C(=O)NC3CCCCC3)cc2C1` (stereo not drawn): the “hERG current change (%, negative = inhibition) at 10uM” value is listed as -5.4%. As to `COC(=O)c1ccccc1NC(=O)c1noc2c1CC(C(C)(C)C)CC2` (stereo not drawn), the “hERG current change (%, negative = inhibition) at 10uM” value came to 17.2%. For the compound `O=C(NNS(=O)(=O)c1ccc([N+](=O)[O-])cc1)c1ccc2ccccc2c1O`, the “hERG current change (%, negative = inhibition) at 10uM” value was 1.97%. For `CC(C)c1ccccc1NC(=S)NC(C)c1ccccc1` (stereo not drawn) the value was -9.02%; for `CCCC(=O)c1ccc(CP(=O)(OCC)OCC)o1`, 19.5%.
